Measurements as given in a collection of fitness landscapes (doi:10.1016/j.celrep.2020.107928).
Whole data set: some 81,000 sequences, median “one-hybrid fitness for binding parS DNA” near -0.17, cut for the highest 2% near 0.51. The list shows a part of the results.

B1: Caulobacter ParB omega fusion; a variant is named by its letters at X, in order, B8GW30 (parent)
chain: MESVVVGEPGMSEGRRGLGRGLSALLGEVDAAPAQAPGEQLGGSREAPIEILQRNPDQPRRTFREEDLEDLSNSIREKGVLQPILVRPSPDTAGEYQIVAGERAWRAAQRAGLKTVPIMVRELDDLAVLEIGIIENVQRADLNVLEEALSYKVLMEKFERTQENIAQTIGKSXSHVANXMRLLXLPDEVQSYLVSGELTAXHARAIAAAADPVALAKQIIEGGLSVRETEALARKAPNLSAGKSKGGRPPRVKDTDTQALESDLSSVLGLDVSIDHRGSTGTLTITYATLEQLDDLCNRLTRGI

Variants of: B1
Assay: one-hybrid fitness for binding parS DNA (scaled: cognate 1, non-cognate 0); higher = stronger binding
Conditions: with parS DNA site
How it was run: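 On M9-minus-histidine containing 0.1 mM IPTG and 5 mM 3-AT, E. coli USO cells with a HIS3 reporter, site 19 bp from the promoter, grew 48 hours at 37°C to select Caulobacter ParB libraries randomised at four specificity codons. Plasmids from before and after were Illumina-sequenced, with three replicate libraries pooled and variants under 10 reads left out. Fitness is the log change in variant-to-wild-type read ratio, rescaled against cognate and non-cognate.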

one-hybrid fitness for binding parS DNA, 0.475:
RHPS

one-hybrid fitness for binding parS DNA, 0.592:
RAAA

one-hybrid fitness for binding parS DNA, 0.226:
MQDL

one-hybrid fitness for binding parS DNA, 0.693:
RRIT

one-hybrid fitness for binding parS DNA, 0.462:
RYLY

one-hybrid fitness for binding parS DNA, 0.904:
RMNT

one-hybrid fitness for binding parS DNA, 0.965:
RHFS

one-hybrid fitness for binding parS DNA, ≤ 0.2:
MMCG
MHSF
ENQR
SFND
VCLL
LQNM
ECRD
FYAS
MLKY
WQNC
LRHR
RHYQ
IQEL
WTRR
QHLY
LVLE
IAGI
GQDG
EVRS
SWEG
TVRA
AANS
ESRF
SNAL
VMAC
LMVN
KYGP
AAWR
GEAL
KREM
SDPH
WVLY
TTNM
ENVT
IHII
RRPD
CQTR
FMHG
LSLT
FRDF
TLSP
AGKM
NSTW
GGRF
VEFR
QYTM
GGTY
LARR
FITM
TDLA
ETYR
SLFP
KTPG
DRTA
VDSP
YMHC
GAGR
GCCS
RIRE
VIQC
QTQS
SDES
DFTL
RPGF
YKGR
LTGV
TIME
FSWY
MIQP
CKAQ
YRIT
SALV
IRKI
QMVM
AYKN
SNKY
YMAA
KLDY
AMET
SEAT
QPFS
ATMY
ANFS
TFAR
QAMS
HFTY
ATPR
NQEI
EGPE
VSHS
NIRF
SPME
AIMD
KCKV
RWDM
QLTP
PSLL
HSMS
LVSA
HRQR
YTFR
KTSV
LAGP
WTKW
WQNN
ASKM
QPAD
QMAC
EYEV
TSLT
HARS
AYKS
HGYR
WLVG
MWHK
AQSG
IAHE
GRCT
HTKL
TTPH
DGKG
FLTS
GPIY
WGPE
NNPA
SLHL
DTYN
CYPQ
TYIF
HRCI
LKNL
TNQD
YMMG
PWSG
DKDW
DAQR
NVYM
NLRL
EISC
RGVM
TWDP
QTVC
WPPC
TDRA
ADYY
LAQC
QNSM
SEHE
CFHG
RQVM
SPYC
GDCC
ENKA
TLDG
ESVI
GHPP
VRSG
SSQA
ARYT
CNPR
QAVR
ARGP
YAKS
WSEG
ATIE
STSA
NHHG
MPHL
EKYC
SMNI
FTVL
SDTM
YQCS
HMDT
NSAI
IRQR
PILN
VSPV
RLKL
FKMS
PVHG
QRET
LRQA
DDYY
IILC
VPTC
QKCG
QSMD
FRRT
NWVT
WFHT
HVQT
GYRK
PQTH
DDRR
LNRL
AYSW
PVGL
RRQE
TGAR
LRIS
FHRG
VINC
NSSE
SIKV
YGRY
HAYG
KDPE
EQLC
CCPR
PTVT
KRRH
KNKT
RCQE
DMRV
EGMW
ASKK
WTES
EASA
GFDT
GFLM
QNCP
QICF
HCNH
TTND
SYIS
QIEC
RKSH
LLAG
SKPC
AVAT
QVSR
FLDS
TSRV
ISIS
FTLR
YGDC
SYAT
AVVD
PKQG
ALDQ
SSQW
YKRL
NRRV
MVHW
TDAA
PQFC
HGDN
LHWV
VPFF
RILK
SADK
AEYA
QREV
QFCS
LSSW
NEWS
NRQT
SEQC
QTPW
TIMR
LLVD
RHSQ
YRLG
HCTP
CQHY
GLVS
RISI
KNGR
IEPR
AAPL
KPIT
DHCK
VQLN
HLSF
DKVQ
GGLG
SRGR
SACR
KAKL
TSHL
PETR
FLCR
TRFW
KRKV
VNCI
WLSR
WLQT
SYQQ
PPIP
FHDS
EGGL
CLLV

one-hybrid fitness for binding parS DNA, 0.868:
RKYT

one-hybrid fitness for binding parS DNA, 0.256:
THFR

one-hybrid fitness for binding parS DNA, 0.238:
EPGN

one-hybrid fitness for binding parS DNA, 0.224:
RVSW

one-hybrid fitness for binding parS DNA, 0.203:
RVRH

one-hybrid fitness for binding parS DNA, 0.558:
RQCA
